For orientation: inhibition means the drop in the measured response relative to a control, in per cent.

One molecule from ChEMBL document CHEMBL4346670, “Discovery of Novel Janus Kinase (JAK) and Histone Deacetylase (HDAC) Dual Inhibitors for the Treatment of Hematological Malignancies” (J Med Chem, 2019) can be followed below.

Data set [1] has as its system K562. In words: Induction of apoptosis in human K562 cells assessed as necrotic apoptotic cells at 0.5 uM after 24 hrs by Annexin-V/propidium iodide staining-based flow cytometric analysis (reference value: 0.827%). The format is functional. A general note: Flow cytometry measures light scatter and fluorescence of single cells or particles in a stream.
Data set [2] can be described thus: Toxicity in BALB/c nu mouse xenografted with HEL cells assessed as injury to internal organs at 100 mg/kg/day, ip administered for 16 days and measured post-last dose. The following applies: in vivo, 384 h. It is filed as organism-based.
For data set [3], the target named is RAC-alpha serine/threonine-protein kinase (Homo sapiens) (UniProt P31749). The experiment in a line: Inhibition of recombinant human AKT1 at 20 nM using CREBtide as substrate measured after 60 mins by LANCE assay relative to control. The gist of the method:
(§1)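 Part of an 85-kinase selectivity panel run by a contract lab. The test compound was screened at 20 nM and 200 nM against human recombinant kinases. Activity was quantified as phosphorylation of a ULight-labelled peptide substrate, read by LANCE detection. Percent inhibition was taken relative to control. The method is the same one used for JAKs.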

For data set [4], the target named is Tyrosine-protein kinase ABL2 (Homo sapiens) (UniProt P42684). In words: Inhibition of recombinant human ARG at 200 nM using Ulight-TK peptide as substrate measured after 60 mins by LANCE assay relative to control. The gist of the method:
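Human recombinant kinases tested at 20 nM and 200 nM compound in an outsourced panel of 85 kinases. Activity measured as phosphorylation of a ULight-labelled substrate by LANCE detection, expressed as inhibition relative to control.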

In data set [5] the target is Mast/stem cell growth factor receptor Kit (Homo sapiens) (UniProt P10721). The experiment in a line: Inhibition of recombinant human c-KIT at 20 nM using Ulight-TK peptide as substrate measured after 30 mins by LANCE assay relative to control. A general note: Time-resolved FRET reads energy transfer from a long-lived donor to a nearby acceptor.
Data set [6] shares this target. The experiment in a line: Inhibition of recombinant human c-KIT at 200 nM using Ulight-TK peptide as substrate measured after 30 mins by LANCE assay relative to control.
Data set [7] deals with Epidermal growth factor receptor (Homo sapiens) (UniProt P00533). In words: Inhibition of recombinant human EGFR at 20 nM using Ulight-CAGAGAIETDKEYYTVKD as substrate measured after 15 mins by LANCE method relative to control. In outline: (§2)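 Single-concentration screen within an 85-kinase panel run by a contract lab, with each compound tested at 20 nM and 200 nM. Human recombinant enzymes were used. Activity was quantified as phosphorylation of a peptide substrate read by LANCE time-resolved detection, and inhibition was expressed relative to control, using the same format as the JAK assay.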

For data set [8] the target is unchanged. In words: Inhibition of recombinant human EGFR at 200 nM using Ulight-CAGAGAIETDKEYYTVKD as substrate measured after 15 mins by LANCE method relative to control. The gist of the method: as §2
Data set [9] addresses Focal adhesion kinase 1 (Homo sapiens) (UniProt Q05397). The experiment in a line: Inhibition of recombinant human FAK1 at 200 nM using Ulight-TK peptide as substrate measured after 60 mins by LANCE method relative to control. In outline:
as §1

The target of data set [10] is Ephrin type-A receptor 1 (Homo sapiens) (UniProt P21709). The experiment in a line: Inhibition of recombinant human EPHA1 at 200 nM using biotinyl-beta amyloid-beta amyloid-beta AAEEEIYEEIEAKKK as substrate after 30 mins by HTRF method relative to control.
In data set [11] the target is Homeodomain-interacting protein kinase 2 (Homo sapiens) (UniProt Q9H2X6). In words: Inhibition of recombinant human HIPK2 at 20 nM using Ulight-CFFKNIVTPRTPPPSQGK-amide as substrate measured after 30 mins by LANCE method relative to control. In outline: (§3)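 Part of an 85-kinase selectivity panel run by a contract lab, with the test compound at 20 nM and at 200 nM. Each human recombinant kinase's phosphorylation of its peptide substrate was measured following the JAK assay method. Activity is given as percent inhibition.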

Data set [12] concerns the target Inhibitor of nuclear factor kappa-B kinase subunit alpha (Homo sapiens) (UniProt O15111). The experiment in a line: Inhibition of recombinant human IKKalpha at 20 nM using Ulight-IkappaB-alpha as substrate measured after 30 mins by LANCE method relative to control. The gist of the method:
as §3

Data set [13] has as its target Interleukin-1 receptor-associated kinase 1 (Homo sapiens) (UniProt P51617). In words: Inhibition of recombinant human IRAK1 at 200 nM using Ulight-FLGFTYVAP as substrate measured after 60 mins by LANCE method relative to control. The gist of the method: as §3
Data set [14] addresses Insulin receptor-related protein (Homo sapiens) (UniProt P14616). In words: Inhibition of recombinant human IRR at 200 nM using Ulight-TK peptide as substrate measured after 30 mins by LANCE method relative to control. The gist of the method:
as §3

Data set [15] deals with Ribosomal protein S6 kinase alpha-4 (Homo sapiens) (UniProt O75676). In words: Inhibition of recombinant human MSK2 at 200 nM using biotinyl-beta amyloid-beta amyloid-beta AAAARARTSSFAEPG after 15 mins by HTRF method relative to control.
Data set [16] has as its target Phosphorylase b kinase gamma catalytic chain, liver/testis isoform (Homo sapiens) (UniProt P15735). In words: Inhibition of recombinant human PHKG2 at 200 nM using CREBtide as substrate measured after 30 mins by LANCE method relative to control.
Data set [17] deals with Aurora kinase A (Homo sapiens) (UniProt O14965). The experiment in a line: Inhibition of recombinant human AurA at 20 nM using Ulight-RRRSLLE peptide as substrate measured after 15 mins by LANCE assay relative to control. In outline:
as §2

In data set [18] the target is Proto-oncogene tyrosine-protein kinase receptor Ret (Homo sapiens) (UniProt P07949). The experiment in a line: Inhibition of recombinant human RET at 200 nM using biotinyl-beta amyloid-beta amyloid-beta AAEEEEYFELVAKKK as substrate after 30 mins by HTRF method relative to control.
Data set [19] concerns the target Rho-associated protein kinase 2 (Homo sapiens) (UniProt O75116). In words: Inhibition of recombinant human ROCK2 at 20 nM using Ulight-RRRSLLE peptide as substrate measured after 15 mins by LANCE assay relative to control.
Data set [20] deals with Serine/threonine-protein kinase ULK1 (Homo sapiens) (UniProt O75385). The experiment in a line: Inhibition of recombinant human ULK1 at 200 nM using Ulight-FLGFTYVAP as substrate measured after 60 mins by LANCE method relative to control.
In data set [21] the target is Receptor-type tyrosine-protein kinase FLT3 (Homo sapiens) (UniProt P36888). In words: Inhibition of recombinant human FLT3 at 20 nM using Ulight-TK peptide as substrate measured after 60 mins by LANCE assay relative to control. The gist of the method: as §2
Data set [22] deals with Serine/threonine-protein kinase B-raf (Homo sapiens) (UniProt P15056). In words: Inhibition of recombinant human BRAF at 200 nM using inactive MEK as substrate measured after 30 mins by LANCE method relative to control.
Data set [23] addresses MAP kinase-interacting serine/threonine-protein kinase 1 (Homo sapiens) (UniProt Q9BUB5). In words: Inhibition of recombinant human MNK1 at 20 nM using CREBtide as substrate measured after 60 mins by LANCE assay relative to control. In outline: as §3
Sequence of UniProt Q9BUB5 (Q9BUB5 whole entry, looked up): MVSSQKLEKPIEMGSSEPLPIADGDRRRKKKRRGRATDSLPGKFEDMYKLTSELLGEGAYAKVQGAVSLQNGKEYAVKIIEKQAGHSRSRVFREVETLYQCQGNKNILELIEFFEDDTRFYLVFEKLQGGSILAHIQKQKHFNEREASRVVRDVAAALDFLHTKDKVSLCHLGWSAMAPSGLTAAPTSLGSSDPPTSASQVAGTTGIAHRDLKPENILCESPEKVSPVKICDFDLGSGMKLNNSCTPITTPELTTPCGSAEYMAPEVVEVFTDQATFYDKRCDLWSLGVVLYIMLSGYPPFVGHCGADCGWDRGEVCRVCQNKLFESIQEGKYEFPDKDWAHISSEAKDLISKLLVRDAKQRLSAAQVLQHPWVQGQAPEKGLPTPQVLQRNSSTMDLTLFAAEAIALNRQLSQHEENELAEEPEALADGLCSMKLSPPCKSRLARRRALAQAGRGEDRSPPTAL

Sequence of UniProt P00533 (P00533 whole entry): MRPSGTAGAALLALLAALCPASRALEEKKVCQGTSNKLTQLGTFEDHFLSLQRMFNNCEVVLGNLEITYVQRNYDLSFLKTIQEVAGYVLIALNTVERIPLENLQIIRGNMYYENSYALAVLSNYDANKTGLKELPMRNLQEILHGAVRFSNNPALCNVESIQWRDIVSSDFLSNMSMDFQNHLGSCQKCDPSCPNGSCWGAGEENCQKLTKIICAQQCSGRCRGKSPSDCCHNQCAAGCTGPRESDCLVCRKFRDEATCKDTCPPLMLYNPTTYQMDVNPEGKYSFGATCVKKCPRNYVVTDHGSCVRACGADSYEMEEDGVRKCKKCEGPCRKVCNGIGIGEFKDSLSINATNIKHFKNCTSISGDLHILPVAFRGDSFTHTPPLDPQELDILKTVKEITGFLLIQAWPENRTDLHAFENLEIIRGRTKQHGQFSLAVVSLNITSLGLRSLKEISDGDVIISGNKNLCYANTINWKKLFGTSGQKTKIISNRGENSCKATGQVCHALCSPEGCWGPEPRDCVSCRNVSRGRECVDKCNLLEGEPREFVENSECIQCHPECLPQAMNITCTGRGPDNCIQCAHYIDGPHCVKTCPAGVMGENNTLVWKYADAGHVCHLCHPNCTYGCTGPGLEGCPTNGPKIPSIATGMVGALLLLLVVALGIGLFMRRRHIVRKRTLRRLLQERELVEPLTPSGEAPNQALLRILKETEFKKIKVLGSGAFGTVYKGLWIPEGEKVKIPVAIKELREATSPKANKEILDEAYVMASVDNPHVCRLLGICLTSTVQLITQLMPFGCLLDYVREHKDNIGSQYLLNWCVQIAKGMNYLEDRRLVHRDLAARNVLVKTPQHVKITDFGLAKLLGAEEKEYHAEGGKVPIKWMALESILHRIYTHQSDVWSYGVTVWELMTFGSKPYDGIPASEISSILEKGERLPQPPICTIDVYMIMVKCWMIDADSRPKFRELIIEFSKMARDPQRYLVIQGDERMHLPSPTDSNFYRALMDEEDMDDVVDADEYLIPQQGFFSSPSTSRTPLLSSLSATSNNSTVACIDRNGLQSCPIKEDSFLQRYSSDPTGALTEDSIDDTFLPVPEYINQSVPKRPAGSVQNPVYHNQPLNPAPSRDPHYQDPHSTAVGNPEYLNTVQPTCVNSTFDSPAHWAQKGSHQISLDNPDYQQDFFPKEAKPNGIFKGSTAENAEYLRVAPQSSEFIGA
Sequence of UniProt P10721 (P10721 whole entry): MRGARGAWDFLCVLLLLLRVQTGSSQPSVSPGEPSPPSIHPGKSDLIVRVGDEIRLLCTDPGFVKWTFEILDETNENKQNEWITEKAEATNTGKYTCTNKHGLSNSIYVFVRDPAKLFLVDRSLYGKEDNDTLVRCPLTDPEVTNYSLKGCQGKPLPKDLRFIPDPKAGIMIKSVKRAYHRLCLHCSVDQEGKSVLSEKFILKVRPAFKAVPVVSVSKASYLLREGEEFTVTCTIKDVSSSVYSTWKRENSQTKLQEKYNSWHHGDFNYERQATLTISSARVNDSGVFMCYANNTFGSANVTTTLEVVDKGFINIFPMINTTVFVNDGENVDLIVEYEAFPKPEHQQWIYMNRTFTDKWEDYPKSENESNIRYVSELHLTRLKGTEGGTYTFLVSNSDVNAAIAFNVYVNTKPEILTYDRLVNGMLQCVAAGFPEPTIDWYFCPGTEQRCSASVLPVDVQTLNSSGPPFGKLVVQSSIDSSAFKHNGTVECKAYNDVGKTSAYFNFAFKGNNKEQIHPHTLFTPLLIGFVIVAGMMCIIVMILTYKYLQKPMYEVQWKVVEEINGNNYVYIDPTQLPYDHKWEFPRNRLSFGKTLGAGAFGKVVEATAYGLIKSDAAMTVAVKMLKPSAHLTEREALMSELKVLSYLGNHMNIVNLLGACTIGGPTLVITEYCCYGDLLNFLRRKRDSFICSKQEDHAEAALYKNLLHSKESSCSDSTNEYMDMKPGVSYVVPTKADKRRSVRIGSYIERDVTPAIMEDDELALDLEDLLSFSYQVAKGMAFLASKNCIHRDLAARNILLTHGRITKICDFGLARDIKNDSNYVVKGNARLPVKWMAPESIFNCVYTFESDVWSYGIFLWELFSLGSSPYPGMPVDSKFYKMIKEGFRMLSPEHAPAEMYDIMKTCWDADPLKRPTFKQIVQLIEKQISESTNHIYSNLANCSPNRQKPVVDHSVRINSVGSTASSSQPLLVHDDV
Sequence of UniProt P31749 (P31749 whole entry): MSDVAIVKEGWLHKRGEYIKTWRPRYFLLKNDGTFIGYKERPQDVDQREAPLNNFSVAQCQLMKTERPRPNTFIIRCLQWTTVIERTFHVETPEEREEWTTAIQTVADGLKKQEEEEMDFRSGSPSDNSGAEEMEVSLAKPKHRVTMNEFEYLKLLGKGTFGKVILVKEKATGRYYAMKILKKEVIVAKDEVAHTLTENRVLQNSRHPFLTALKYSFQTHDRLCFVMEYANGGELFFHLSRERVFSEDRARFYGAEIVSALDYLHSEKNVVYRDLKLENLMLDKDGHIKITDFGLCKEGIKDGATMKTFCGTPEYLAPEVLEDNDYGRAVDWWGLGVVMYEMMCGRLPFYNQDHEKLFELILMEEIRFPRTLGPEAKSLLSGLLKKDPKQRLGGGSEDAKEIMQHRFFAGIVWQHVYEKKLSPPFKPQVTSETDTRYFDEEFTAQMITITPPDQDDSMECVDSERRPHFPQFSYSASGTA
Sequence of UniProt O15111 (O15111 whole entry): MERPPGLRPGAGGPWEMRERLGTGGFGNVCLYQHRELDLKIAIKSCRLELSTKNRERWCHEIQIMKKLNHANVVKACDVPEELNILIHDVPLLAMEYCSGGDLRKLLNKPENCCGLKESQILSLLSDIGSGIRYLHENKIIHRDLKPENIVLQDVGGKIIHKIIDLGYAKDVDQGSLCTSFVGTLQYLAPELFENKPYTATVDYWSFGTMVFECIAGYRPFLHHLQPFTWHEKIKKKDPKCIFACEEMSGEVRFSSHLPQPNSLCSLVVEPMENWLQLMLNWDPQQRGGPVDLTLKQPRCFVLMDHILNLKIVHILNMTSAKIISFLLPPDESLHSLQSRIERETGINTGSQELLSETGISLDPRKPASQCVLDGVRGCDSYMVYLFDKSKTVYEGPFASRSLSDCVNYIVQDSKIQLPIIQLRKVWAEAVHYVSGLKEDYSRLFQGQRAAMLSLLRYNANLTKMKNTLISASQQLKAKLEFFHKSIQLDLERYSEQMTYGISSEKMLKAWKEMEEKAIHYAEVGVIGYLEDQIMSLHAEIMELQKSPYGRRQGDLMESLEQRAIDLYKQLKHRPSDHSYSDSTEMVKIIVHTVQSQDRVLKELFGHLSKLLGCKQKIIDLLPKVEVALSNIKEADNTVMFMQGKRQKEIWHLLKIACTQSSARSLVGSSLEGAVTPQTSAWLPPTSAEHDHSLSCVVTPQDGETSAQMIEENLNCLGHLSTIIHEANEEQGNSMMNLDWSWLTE
Sequence of UniProt Q9H2X6 (Q9H2X6 whole entry, looked up): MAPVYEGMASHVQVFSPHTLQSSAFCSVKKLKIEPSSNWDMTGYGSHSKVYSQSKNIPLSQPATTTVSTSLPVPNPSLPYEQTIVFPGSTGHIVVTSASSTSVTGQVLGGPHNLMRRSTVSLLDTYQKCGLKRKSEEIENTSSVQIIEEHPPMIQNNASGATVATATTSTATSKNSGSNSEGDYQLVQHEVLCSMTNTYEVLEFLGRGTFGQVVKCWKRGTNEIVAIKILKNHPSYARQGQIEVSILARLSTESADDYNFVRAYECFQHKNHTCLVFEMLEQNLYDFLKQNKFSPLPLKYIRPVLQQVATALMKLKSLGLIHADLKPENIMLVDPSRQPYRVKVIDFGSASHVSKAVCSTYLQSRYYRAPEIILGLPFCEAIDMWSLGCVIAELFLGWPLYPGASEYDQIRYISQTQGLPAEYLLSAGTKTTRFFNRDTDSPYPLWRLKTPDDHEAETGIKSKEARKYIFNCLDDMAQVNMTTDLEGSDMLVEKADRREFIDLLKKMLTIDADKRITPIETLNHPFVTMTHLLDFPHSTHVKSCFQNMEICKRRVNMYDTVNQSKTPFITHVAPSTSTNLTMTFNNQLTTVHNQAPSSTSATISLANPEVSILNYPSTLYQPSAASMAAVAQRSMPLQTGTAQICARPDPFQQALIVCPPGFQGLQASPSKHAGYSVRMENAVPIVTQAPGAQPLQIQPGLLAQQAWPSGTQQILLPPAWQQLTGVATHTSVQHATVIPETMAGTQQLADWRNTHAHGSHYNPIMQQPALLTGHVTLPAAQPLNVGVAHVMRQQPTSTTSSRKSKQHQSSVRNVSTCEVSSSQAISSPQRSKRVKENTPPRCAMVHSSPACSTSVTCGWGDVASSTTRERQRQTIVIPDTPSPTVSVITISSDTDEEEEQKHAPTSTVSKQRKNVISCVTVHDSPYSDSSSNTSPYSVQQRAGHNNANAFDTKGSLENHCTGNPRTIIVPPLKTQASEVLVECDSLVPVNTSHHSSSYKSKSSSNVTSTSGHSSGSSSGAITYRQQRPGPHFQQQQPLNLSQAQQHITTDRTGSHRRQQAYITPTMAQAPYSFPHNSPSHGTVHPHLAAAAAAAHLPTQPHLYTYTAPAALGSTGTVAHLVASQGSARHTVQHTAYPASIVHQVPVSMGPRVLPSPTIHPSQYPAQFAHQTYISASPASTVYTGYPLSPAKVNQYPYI

With `O=C(CCCCCn1cc(Nc2ncc(Cl)c(Nc3ccc(Cl)cc3)n2)cn1)NO`, the Activity in data set [1] is on record as 1.34%; in data set [2], “Non-Toxic”. For the same molecule, the inhibition in [3] was 38%; in data set [4], 30%; in [5] it was 6%; in [6], 35%; in data set [7], -5%; in data set [8] it was 21%. The inhibition in [9] is 38%; in data set [10], 27%; in data set [11], -4%; in [12], 8%; in data set [13], 41%; in data set [14], 41%. Besides, the inhibition in data set [15] is 17%; in [16] it was 15%; in data set [17], 37%; in data set [18], 99%; in data set [19] it was -3%; in [20], 13%. Also, the inhibition came out at 60% in data set [21], 5% in data set [22] and 0% in [23].
